# Data taken from the supplement of paper PMC8728848.
# Some of the results follow.
# B1: Epa1to9 (Candida glabrata) (protein)
# chain: MGSSHHHHHHSSGLVPRGSHMTSSNDISLASKDPTTFPLGCSPDITTPKKGLSMELYSYDFRKKGSYPCWDAAYLDPNYPRTGYKSHRLLAKVDGVTGNINFYYHATKGCTPQLGHLPASYNYPKPLTMTNFTMLLYGYFRPKVTGFHTFTISADDLLFVNFGAGNAFDCCRRDSSADHFGNYQAYAIWGSKTAKDELTVHLDAGVYYPIRLFYNNRDYHGALSFTFKTESNENTVSDFSEYFFSLDDTEEGCPGLISYD
# How the values were obtained:
# Assay in all cases: glycan array binding signal (z-score within array); higher = stronger binding
# Settings in all cases: glycan notation: IUPAC condensed, linker removed
# [1] = molecular target: Man(a1-3)[Man(a1-6)]Man(a1-6)[Man(a1-2)Man(a1-3)]Man(b1-4)GlcNAc(b1-4)GlcNAc
# Outline: (§1)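 Arrays were curated from the Consortium for Functional Glycomics database, 3228 in total, and kept only where the protein sequence was available. Binding is expressed as a within-array Z-score. This score was averaged across arrays of the same protein sequence at different concentrations or buffers and across linkers, and negative values can be read as non-binding.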
# [2] = molecular target: Man(a1-3)[Man(a1-6)]Man(a1-6)[Man(a1-3)]Man
# Outline: as §1
# [3] = molecular target: Man(a1-3)[Man(a1-6)]Man(a1-6)[Man(a1-3)]Man(b1-4)GlcNAc(b1-4)GlcNAc
# Outline: as §1
# [4] = molecular target: Man(a1-3)[Man(a1-6)]Man(b1-4)GlcNAc(b1-4)GlcNAc
# Outline: as §1
# [5] = molecular target: Man(a1-3)[Man(a1-6)]Man(b1-4)GlcNAc(b1-4)[Fuc(a1-6)]GlcNAc
# Outline: as §1
# Man(a1-6)Man = molecular target: Man(a1-6)Man
# Outline: as §1
# Man(b1-4)GlcNAc = molecular target: Man(b1-4)GlcNAc
# Outline: as §1
# MurNAc(b1-4)GlcNAc = molecular target: MurNAc(b1-4)GlcNAc
# Outline: as §1
# Neu5Ac(a2-3)Gal = molecular target: Neu5Ac(a2-3)Gal
# Outline: as §1
# [6] = molecular target: Neu5Ac(a2-3)Gal(b1-3)GalNAc
# Outline: as §1
# [7] = molecular target: Neu5Ac(a2-3)Gal(b1-3)GalNAc(b1-3)Gal(a1-4)Gal(b1-4)Glc
# Outline: as §1
# [8] = molecular target: Neu5Ac(a2-3)Gal(b1-3)GalNAc(b1-4)[Neu5Ac(a2-3)]Gal(b1-4)Glc
# Outline: as §1
# [9] = molecular target: Neu5Ac(a2-3)Gal(b1-3)GalNAc(b1-4)[Neu5Ac(a2-8)Neu5Ac(a2-3)]Gal(b1-4)Glc
# Outline: as §1
# [10] = molecular target: Neu5Ac(a2-3)Gal(b1-3)GalNAc6S
# Outline: as §1
# [11] = molecular target: Neu5Ac(a2-3)Gal(b1-3)GlcNAc
# Outline: as §1
# [12] = molecular target: Neu5Ac(a2-3)Gal(b1-3)GlcNAc(b1-2)Man
# Outline: as §1
# [13] = molecular target: Neu5Ac(a2-3)Gal(b1-3)GlcNAc(b1-2)Man(a1-3)[GlcNAc(b1-4)][Neu5Ac(a2-3)Gal(b1-3)GlcNAc(b1-2)Man(a1-6)]Man(b1-4)GlcNAc(b1-4)GlcNAc
# Outline: as §1
# [14] = molecular target: Neu5Ac(a2-3)Gal(b1-3)GlcNAc(b1-2)Man(a1-3)[Neu5Ac(a2-3)Gal(b1-3)GlcNAc(b1-2)Man(a1-6)]Man(b1-4)GlcNAc(b1-4)GlcNAc
# Outline: as §1
# [15] = molecular target: Neu5Ac(a2-3)Gal(b1-3)GlcNAc(b1-2)[Neu5Ac(a2-3)Gal(b1-3)GlcNAc(b1-4)]Man(a1-6)[Neu5Ac(a2-3)Gal(b1-3)GlcNAc(b1-2)Man(a1-3)]Man(b1-4)GlcNAc(b1-4)GlcNAc
# Outline: as §1
# [16] = molecular target: Neu5Ac(a2-3)Gal(b1-3)GlcNAc(b1-3)Gal(b1-3)GlcNAc
# Outline: as §1
# [17] = molecular target: Neu5Ac(a2-3)Gal(b1-3)GlcNAc(b1-3)Gal(b1-4)GlcNAc
# Outline: as §1
# [18] = molecular target: Neu5Ac(a2-3)Gal(b1-3)GlcNAc(b1-3)GalNAc
# Outline: as §1
# [19] = molecular target: Neu5Ac(a2-3)Gal(b1-3)GlcNAc(b1-4)Gal(b1-4)Glc
# Outline: as §1
# [20] = molecular target: Neu5Ac(a2-3)Gal(b1-3)GlcNAc(b1-6)GalNAc
# Outline: as §1
# [21] = molecular target: Neu5Ac(a2-3)Gal(b1-3)GlcNAc6S
# Outline: as §1
# [22] = molecular target: Neu5Ac(a2-3)Gal(b1-3)[Fuc(a1-4)]GlcNAc
# Outline: as §1
# [23] = molecular target: Neu5Ac(a2-3)Gal(b1-3)[Fuc(a1-4)]GlcNAc(b1-3)Gal(b1-3)[Fuc(a1-4)]GlcNAc
# Outline: as §1
# [24] = molecular target: Neu5Ac(a2-3)Gal(b1-3)[Fuc(a1-4)]GlcNAc(b1-3)Gal(b1-4)[Fuc(a1-3)]GlcNAc
# Outline: as §1
# [25] = molecular target: Neu5Ac(a2-3)Gal(b1-3)[GlcNAc(b1-6)]GalNAc
# Outline: as §1
# [26] = molecular target: Neu5Ac(a2-3)Gal(b1-3)[Neu5Ac(a2-6)]GalNAc
# Outline: as §1
# [27] = molecular target: Neu5Ac(a2-3)Gal(b1-3)[Neu5Ac(a2-6)]GlcNAc(b1-3)[Fuc(a1-3)[Gal(b1-4)]GlcNAc(b1-6)]Gal(b1-4)Glc
# Outline: as §1
# [28] = molecular target: Neu5Ac(a2-3)Gal(b1-3)]Neu5Ac(a2-3)Gal(b1-4)]GlcNAc
# Outline: as §1
# Neu5Ac(a2-3)Gal(b1-4)Glc = molecular target: Neu5Ac(a2-3)Gal(b1-4)Glc
# Outline: as §1
# [29] = molecular target: Neu5Ac(a2-3)Gal(b1-4)GlcNAc
# Outline: as §1
# [30] = molecular target: Neu5Ac(a2-3)Gal(b1-4)GlcNAc(b1-2)Man
# Outline: as §1
# [31] = molecular target: Neu5Ac(a2-3)Gal(b1-4)GlcNAc(b1-2)Man(a1-3)[GlcNAc(b1-4)][Neu5Ac(a2-3)Gal(b1-4)GlcNAc(b1-2)Man(a1-6)]Man(b1-4)GlcNAc(b1-4)GlcNAc
# Outline: as §1
# [32] = molecular target: Neu5Ac(a2-3)Gal(b1-4)GlcNAc(b1-2)Man(a1-3)[Neu5Ac(a2-3)Gal(b1-4)GlcNAc(b1-2)Man(a1-6)]Man(b1-4)GlcNAc(b1-4)GlcNAc
# Outline: as §1
# [33] = molecular target: Neu5Ac(a2-3)Gal(b1-4)GlcNAc(b1-2)Man(a1-3)[Neu5Ac(a2-3)Gal(b1-4)GlcNAc(b1-2)Man(a1-6)]Man(b1-4)GlcNAc(b1-4)[Fuc(a1-6)]GlcNAc
# Outline: as §1
binder,measurement,setting,value
B1,glycan array binding signal (z-score),[1],-0.294
same,glycan array binding signal (z-score),[2],-0.347
same,glycan array binding signal (z-score),[3],-0.335
same,glycan array binding signal (z-score),[4],-0.358
same,glycan array binding signal (z-score),[5],-0.339
same,glycan array binding signal (z-score),Man(a1-6)Man,-0.35
same,glycan array binding signal (z-score),Man(b1-4)GlcNAc,-0.344
same,glycan array binding signal (z-score),MurNAc(b1-4)GlcNAc,-0.359
same,glycan array binding signal (z-score),Neu5Ac(a2-3)Gal,-0.349
same,glycan array binding signal (z-score),[6],-0.37
same,glycan array binding signal (z-score),[7],-0.344
same,glycan array binding signal (z-score),[8],-0.336
same,glycan array binding signal (z-score),[9],-0.3
same,glycan array binding signal (z-score),[10],-0.269
same,glycan array binding signal (z-score),[11],-0.335
same,glycan array binding signal (z-score),[12],-0.33
same,glycan array binding signal (z-score),[13],-0.282
same,glycan array binding signal (z-score),[14],-0.346
same,glycan array binding signal (z-score),[15],-0.34
same,glycan array binding signal (z-score),[16],-0.362
same,glycan array binding signal (z-score),[17],-0.389
same,glycan array binding signal (z-score),[18],-0.311
same,glycan array binding signal (z-score),[19],-0.338
same,glycan array binding signal (z-score),[20],-0.339
same,glycan array binding signal (z-score),[21],-0.339
same,glycan array binding signal (z-score),[22],-0.371
same,glycan array binding signal (z-score),[23],-0.324
same,glycan array binding signal (z-score),[24],-0.372
same,glycan array binding signal (z-score),[25],-0.328
same,glycan array binding signal (z-score),[26],-0.182
same,glycan array binding signal (z-score),[27],-0.271
same,glycan array binding signal (z-score),[28],-0.222
same,glycan array binding signal (z-score),Neu5Ac(a2-3)Gal(b1-4)Glc,-0.35
same,glycan array binding signal (z-score),[29],-0.349
same,glycan array binding signal (z-score),[30],-0.322
same,glycan array binding signal (z-score),[31],-0.347
same,glycan array binding signal (z-score),[32],-0.339
same,glycan array binding signal (z-score),[33],-0.338
